17 compounds from the supplement of paper PMC9446081 can be followed below.

In all, about 39,000 compounds went through this assay and about 220 (0.56%) showed activity. The list shows a part of the results.
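Note: static incubation at 37 °C against the wild-type strain, values averaged over two biological replicates.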

The test system of this assay is Escherichia coli K-12 BW25113. In words: relative growth (OD600 normalised to plate interquartile mean) (fraction); higher = less growth inhibition, active = 0.2 or less. The settings on record: 50 µM; LB; incubation time: overnight (16-24 h).
Take `C[C@H]1CN([C@@H](C)CO)C(=O)c2ccccc2-c2ccccc2CO[C@@H]1CN(C)S(=O)(=O)c1cn(C)cn1`: the relative growth is inactive: 1. In the case of `C[C@H](CO)N1C[C@H](C)[C@@H](CN(C)C(=O)c2ccncc2)OCCCC[C@H](C)Oc2ccc(NS(C)(=O)=O)cc2C1=O` it was inactive: 1; in that of `C[C@@H]1CN([C@@H](C)CO)C(=O)c2cc(NC(=O)Nc3ccc(F)cc3)ccc2O[C@@H](C)CCCCO[C@@H]1CN(C)C(=O)Cc1ccccc1`, inactive: 1.02; in that of `C[C@@H]1CN([C@@H](C)CO)C(=O)c2cc(NC(=O)c3ccncc3)ccc2O[C@@H]1CN(C)Cc1ccc(C(=O)O)cc1`, inactive: 0.991. As for `C[C@H]1CN([C@@H](C)CO)C(=O)Cc2cc(NC(=O)Nc3ccc(F)cc3)ccc2O[C@H]1CN(C)CC1CCCCC1`, the relative growth was inactive: 0.978. With `O=C(C[C@@H]1C=C[C@H](NC(=O)c2ccc3c(c2)OCO3)[C@@H](CO)O1)NCc1ccc(Oc2ccccc2)cc1`, the relative growth is inactive: 1.01. `C[C@H](CO)N1C[C@H](C)[C@H](CN(C)C(=O)c2ccccc2)OCCCC[C@H](C)Oc2ccc(NS(=O)(=O)c3ccc(F)cc3)cc2C1=O`: the relative growth is inactive: 1.01. In the case of `CN1CCN(C(=O)C[C@H]2CC[C@H]3[C@@H](COc4ccc(NC(=O)c5ccc(F)c(F)c5)cc4C(=O)N3C)O2)CC1` it was inactive: 0.998; in that of `C[C@@H](O)C#Cc1cnc2c(c1)C(=O)N([C@@H](C)CO)C[C@H](C)[C@H](CN(C)C(=O)Nc1ccc(C(F)(F)F)cc1)O2`, inactive: 1.01; in that of `CNC(=O)CN1CCO[C@@H]2CN(Cc3nccs3)C[C@@H]21`, inactive: 0.953. Take `C[C@H](CO)N1C[C@H](C)[C@H](CN(C)S(=O)(=O)c2cn(C)cn2)Oc2ccc(NS(=O)(=O)c3ccccc3)cc2CC1=O`: the relative growth was inactive: 0.975.

With `CO[C@@H]1CN(C)C(=O)c2cc(NS(C)(=O)=O)ccc2OC[C@@H](C)N(C(=O)c2ccc3c(c2)OCO3)C[C@@H]1C`, the relative growth was inactive: 0.96.

Take `NNC(=O)c1ccc(C(=O)NO)cc1`: the relative growth is inactive: 1.02.

On to `C[C@H](CO)N1C[C@H](C)[C@H](CN(C)CC2CCCCC2)OCCCC[C@H](C)Oc2ccc(NC(=O)C3CCCCC3)cc2C1=O`, for which the relative growth is inactive: 0.934. For the compound `C[C@H]1CN([C@@H](C)CO)C(=O)Cc2cc(NC(=O)c3ccncc3)ccc2O[C@@H]1CN(C)S(=O)(=O)c1ccc(Cl)cc1`, the relative growth is inactive: 0.99.

Take `C/C=C/c1cccc(-c2nc(C(=O)NCc3cccc(OC)c3)cc3c2[C@@H](CCO)N([S@](=O)C(C)(C)C)C3)c1`: the relative growth is inactive: 1.01. Consider `CC(C)NC(=O)N(C)C[C@H]1Oc2ccc(NS(=O)(=O)c3ccc(Cl)cc3)cc2C(=O)N([C@@H](C)CO)C[C@H]1C`, for which the relative growth was inactive: 0.976.
